Assay results: PubChem BioAssay AID1745853 (National Center for Advancing Translational Sciences (NCATS), 2022)
Several values for one entry are separate records, joined by “and”; a condition that tells them apart may be missing. Identical values can stand only once. The list shows a part of the results. These are further read-outs of the screen, such as a control signal, another cell line or another target. No call is given for them.

Columns and labels:
Assay in all cases: Primary Screen for Target Class Profiling of Small Molecule Inhibitors of Methyltransferases
[1] = molecular target: Glycine N-methyltransferase (Homo sapiens) (UniProt Q14749); conditions: purified enzyme, MTase-Glo SAH luminescence; measured here: GNMT inhibition; at 40 µM; stronger effect = lower value
Procedure, shortened: (§1)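 Each enzyme was assayed with SAM and its substrate. SAH formation detected by MTase-Glo luminescence; single-point 40 uM screen[…].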

[2] = molecular target: Guanidinoacetate N-methyltransferase (Homo sapiens) (UniProt Q14353); conditions: purified enzyme, MTase-Glo SAH luminescence; measured here: GAMT inhibition; at 40 µM; stronger effect = lower value
Procedure, shortened: as §1

[3] = molecular target: Histamine N-methyltransferase (Homo sapiens) (UniProt P50135); conditions: purified enzyme, MTase-Glo SAH luminescence; measured here: HNMT inhibition; at 40 µM; stronger effect = lower value
Procedure, shortened: as §1

[4] = molecular target: Nicotinamide N-methyltransferase (Homo sapiens) (UniProt P40261); conditions: purified enzyme, MTase-Glo SAH luminescence; measured here: NNMT inhibition; at 40 µM; stronger effect = lower value
Procedure, shortened: as §1

[5] = molecular target: Phenylethanolamine N-methyltransferase (Homo sapiens) (UniProt P11086); conditions: purified enzyme, MTase-Glo SAH luminescence; measured here: PNMT inhibition; at 40 µM; stronger effect = lower value
Procedure, shortened: as §1
On the % scale 0 is the no-effect control and ±100 the full control effect.

Row | SMILES | activity change, negative = inhibition [1] | activity change, negative = inhibition [2] | activity change, negative = inhibition [3] | activity change, negative = inhibition [4] | activity change, negative = inhibition [5]
1 | Cc1ccc(Nc2ccn3c(=O)n(CC(=O)Nc4ccc(F)c(F)c4)nc3n2)cc1 | 4.62% | 0% | -1.47% | -4.17% | 0.315%
2 | Cn1cc(C2=C(c3ccc(Cl)cc3Cl)C(=O)NC2=O)c2ccccc21 | -12.4% | -19% and -2.91% | -8.52% | -33.7% and -18% | -7.78% and -8.18%
3 | O=C(CCn1ccc2cc(S(=O)(=O)N3CCCCC3)ccc21)NCc1ccccc1F | 5.46% | 1.55% | 6.45% | -3.6% | 0.964%
4 | CC#C[C@@H](CC(=O)O)c1ccc(OCc2ccc(CN3CCC4(C=Cc5ccccc54)CC3)s2)cc1 | -9.19% | 10.4% | 5.06% | -35.5% | -9.1%
5 | COc1ccccc1CNC(=O)CCc1nnc2n(CCCOC(C)C)c(=O)c3ccccc3n12 | -5.03% | -5.14% | 9.39% | 7.74% | -4.33%
6 | CCOC(=O)c1cc2n(n1)CC(C)(C(=O)NC1CCCC1)N(Cc1ccc(OC(C)C)cc1)C2=O (configuration not stated) | -1.9% | 0.968% | -0.239% | -7.66% | -2%
7 | Cc1ccc(C(=O)Nc2ccc(S(=O)(=O)O)c3cc(S(=O)(=O)O)cc(S(=O)(=O)O)c23)cc1NC(=O)c1cccc(NC(=O)Nc2cccc(C(=O)Nc3cc(C(=O)Nc4ccc(S(=O)(=O)O)c5cc(S(=O)(=O)O)cc(S(=O)(=O)O)c45)ccc3C)c2)c1 | -61.1% | -5.86% | -1.89% | -14.3% | -12.6%
8 | Cc1ccc(C)c(NC(=O)N2CCn3cccc3C2Cc2ccccc2)c1 (configuration not stated) | -12.8% | -0.518% | -16.9% | -13.9% | -10.3%
9 | CCOC(=O)c1cc2n(n1)CC(C)(C(=O)NC1CCCCCC1)N(Cc1ccc(CC)cc1)C2=O (configuration not stated) | 2.09% | 0% | 1.44% | -5.28% | 3.57%
10 | CN(C)CC1(O)CCC2(CCN(C(=O)C3CCCC3)CC2)CC1 | 0.298% | -0.098% | -0.664% | -8.89% | 13.8%
11 | COc1ccc(OC)c(Nc2nc3c(S(=O)(=O)c4ccc(F)cc4)nnn3c3ccccc23)c1 | 3.1% | 1.17% | 10.4% | 13.9% | 2.79%
12 | CN(C)CC#CCCC(=O)C(O)(c1ccccc1)C1CCC1 (configuration not stated) | 1.39% | 0.69% | -1.74% | -10% | -0.701%
13 | O=C(CCCc1nnc2n3nc(-c4ccccc4)nc3c3ccccc3n12)NCc1ccc(Cl)cc1 | -1.15% | 5.76% | 5.99% | 11.7% | 1.14%
14 | COc1ccccc1-c1cc(C(=O)NC2CC2)nn2cnnc12 | -3.29% | -2.55% | -0.958% | -5.66% | -4.78%
15 | Cc1ccc(CN2CCNC(=O)C2CC(=O)N(CC(C)C)CC(C)C)cc1 (configuration not stated) | -10% | -5.88% | -3.31% | -15.5% | -8.44%
16 | CCOc1ccc(Cl)cc1CN(C)C(=O)C1CC(=O)N(CC)C1 (configuration not stated) | 0.446% | 1.39% | -1.13% | 1.8% | 0.796%
17 | CCC1c2ccc(C)n2CCN1C(=O)Nc1cccc(Br)c1 (configuration not stated) | -2.39% | 0% | -1.28% | -9.77% | -6.61%
18 | CCOc1ccc(NC(=O)N2Cc3c(sc4c3CCCC4)-n3cccc3C2c2cccc(C)c2)cc1 (configuration not stated) | -4.06% | 0% | 1.66% | -0.656% | 1.98%
19 | CC(C)(C)NCCCNC(=O)c1cccc(Br)c1 | 0.554% | 7.63% | 2.72% | -8.71% | 5.57%
20 | C[C@@H]1O[C@@H](O[C@@H]2[C@@H](O)[C@@H](O[C@]3(CO)O[C@H](CO)[C@@H](O)[C@@H]3OC(=O)/C=C/c3ccc(O)cc3)O[C@H](CO)[C@H]2OC(=O)/C=C/c2ccc(O)cc2)[C@H](O)[C@H](O)[C@H]1O[C@@H]1O[C@@H](C)[C@H](O[C@@H]2OC[C@](O)(CO)[C@H]2O)[C@@H](O)[C@H]1O | -1.34% | 1.87% | 5.19% | -7.77% | -0.498%
21 | COc1ccccc1-c1[nH]nc2ncc(C(=O)NCC3CC3)nc12 | -44.7% | -35.6% | -52.1% | -31.4% | -17.1%
22 | CN1C(=O)c2cc(C(=O)N3CCN(c4ccc(F)cc4)CC3)nn2CC1(C)C(=O)NC1CCCC1 (configuration not stated) | 3.02% | 0% | 3.59% | 2.18% | 3.41%
23 | CC1(C(=O)NCc2ccccc2)Cn2nc(-c3ccccc3)cc2C(=O)N1CCc1ccco1 (configuration not stated) | -4.51% | -2.61% | -2.48% | -10.4% | -8.7%
24 | C=C1CCC2C(C(C)(C)O)CCC2(C)CC(O)C(=C)CCC1O (configuration not stated) | -0.86% | 0.481% | 3.96% | -10.7% | -8.38%
25 | CCCC1c2cccn2CCN1C(=O)Nc1ccc(C)c(C)c1 (configuration not stated) | -1.2% | 0% | -12.3% | -1.42% | 0.303%
26 | Cn1cc(CN2CCCC(C(=O)N3CCOCC3)C2)c(-c2ccc(C3CCCCC3)cc2)n1 (configuration not stated) | 0.845% | -0.452% | 1.09% | -1.24% | -0.063%
27 | COc1ccc(S(=O)(=O)N2CCOC[C@H](Oc3ccccc3)C2)cc1 | -8.05% | -4.82% | -2.19% | -9.76% | -7.24%
28 | CC1(C(=O)NC2CCCCCC2)Cn2c(nc3ccccc32)C(=O)N1Cc1ccccn1 (configuration not stated) | 5.41% | 1.28% | 11.3% | 5.02% | 6.51%

Row | SMILES | activity change, negative = inhibition [1] | activity change, negative = inhibition [2] | activity change, negative = inhibition [3] | activity change, negative = inhibition [4] | activity change, negative = inhibition [5]
29 | O=C1N(CC2CC2)CCCC1(O)CNCc1cc(F)cc(F)c1 (configuration not stated) | -4.75% | -4.4% | -0.895% | -11.3% | 9.35%
30 | CSCCC(NS(=O)(=O)c1ccc2c(c1)oc(=O)n2C)C(=O)N1CCN(c2cc(C)ccc2C)CC1 (configuration not stated) | 8.95% | 2.15% | 9.17% | -4.27% | 1.96%
31 | OCCOCCn1cnc(-c2ccccc2)c1COCc1ccccc1 | -5.5% | -0.442% | -0.459% | -3.7% | -3.6%
32 | CCCn1c(=O)c2cc(F)ccc2n2c(SCC(=O)N3CCN(c4ccc(F)cc4)CC3)nnc12 | -4.44% | 0% | 5.2% | -1.18% | 0.092%
33 | O=C(CSc1nnc2n(CCc3ccccc3)c(=O)c3ccccc3n12)Nc1cccc(F)c1 | 3.45% | 0% | 9.04% | 1.52% | 1.68%
34 | O=C(/C=C/c1ccccc1)OC[C@H]1O[C@@H](OC(=O)c2cc(O)c(O)c(O)c2)[C@H](O)[C@@H](O)[C@@H]1O | -1.48% | 6.72% | 9.41% | -7.46% | 3.52%
35 | CN1C(=O)c2cc(C(=O)NCCc3ccccc3)nn2CC1(C)C(=O)NCc1ccc(F)cc1 (configuration not stated) | 5.37% | 0% | 2.82% | 5.26% | 1.3%
36 | COc1ccc(Cl)cc1NS(=O)(=O)c1ccc2[nH]c3c(c2c1)CCCC3 | 2.16% | 6.66% | -3.06% | -7.75% | 1.64%
37 | O=C(CC1CCCCC1)NCc1nnc2cc(-c3nc(C4CC4)no3)ccn12 | -6.11% | -9.1% | -3.4% | -10.8% | -8.61%
38 | CC1(C)CC[C@]2(C(=O)OC3OC(CO)C(O)C(O)C3O)CC[C@]3(C)C(=CCC4[C@@]5(C)C[C@@H](O)[C@H](OC6OC(C(=O)O)C(O)C(O)C6O)C(C)(C)C5CC[C@]43C)[C@@H]2C1 (some centres not stated) | -0.026% | -2.75% | 4.26% | -14.1% | -0.657%
39 | CCOC(=O)C1CCN(c2nc3c(S(=O)(=O)c4ccc(Br)cc4)nnn3c3ccccc23)CC1 | -2.1% | 3.79% | 4.93% | 1.07% | -3.53%
40 | COc1cccc(S(=O)(=O)N2C[C@@H](C)[C@](O)(C3CCC3)C2)c1 | -4.54% | 1.18% | 2.14% | 0.261% | 0.848%
41 | CNCCC=C1c2ccccc2CCc2ccccc21 | -3.13% | 5.87% | -25.8% | -23.7% | 5.91%
42 | Cc1noc(C)c1S(=O)(=O)N1CCc2n[nH]c(=O)n2CC1 | -6.41% | -3.06% | -3.02% | -1.36% | 2.7%
43 | CCOC(=O)c1cc2n(n1)CC(C)(C(=O)NCCC(C)C)N(c1ccccc1CC)C2=O (configuration not stated) | 0.266% | 5.07% | 2.88% | 0.503% | -1.68%
44 | CC1(C(=O)NC2CCCCC2)Cn2c(cc3occc32)C(=O)N1CCc1ccc(Cl)cc1 (configuration not stated) | -4% | 2.68% | 5.01% | -3.66% | -1.69%
45 | CC[C@]1(O)CC2CN(CCc3c([nH]c4ccccc34)[C@@](C(=O)OC)(c3cc4c(cc3OC)N(C=O)[C@H]3[C@@](O)(C(=O)OC)[C@H](OC(C)=O)[C@]5(CC)C=CCN6CC[C@]43[C@@H]65)C2)C1 (some centres not stated) | -8.03% | – | 4.04% | – | –
46 | CCOC(=O)c1ccc(NS(=O)(=O)c2ccc3c(c2)n(C)c(=O)n3C)cc1 | -4.89% | 0% | 12.9% | 18.2% | 4%
47 | OC[C@H]1O[C@@H](OCCc2ccc(O)cc2)[C@H](O)[C@@H](O)[C@@H]1O | 0.151% | -1.65% | -1.14% | -11.7% | 3.29%
48 | C=CCc1ccc(O[C@@H]2O[C@H](CO)[C@@H](O)[C@H](O)[C@H]2O)c(O[C@@H]2O[C@H](CO)[C@@H](O)[C@H](O)[C@H]2O)c1 | 0% | 9.4% | 7.52% | -1.57% | 8.9%
49 | CCCn1c(=O)c2ccc(C(=O)NC(C)C)cc2n2c(SCc3ccc(N4CCCC4=O)cc3)nnc12 | -3.81% | 0.312% | -2.08% | -6.56% | -3.48%
50 | COc1ccc(CNC(=O)C2(C)Cn3cnc(C(=O)NCc4cccc(F)c4)c3C(=O)N2C2CC2)cc1 (configuration not stated) | -3.39% | 0.226% | 1.12% | -3.09% | -2.49%
51 | FC(F)(F)c1ccc(Nc2nc(-c3c(C(F)(F)F)nc4ccccn34)cs2)cc1 | -2.01% | -0.076% | 1.94% | -27.4% | 3.64%
52 | CC(C)c1ccc(NC(=O)Cn2c(=O)oc3cc(S(=O)(=O)NCc4ccccc4)ccc32)cc1 | -59.7% | 0.059% | -0.461% | -0.091% | 4.71%
53 | COc1cccc(N2CCN(C(=O)CCc3nnc4n(Cc5ccc(F)cc5)c(=O)c5ccccc5n34)CC2)c1 | 1.69% | 1.46% | 10.2% | -0.457% | 2.36%
54 | CCOc1ccccc1CN1C(=O)c2cc3sccc3n2CC1(C)C(=O)NC1CCC(C)CC1 (configuration not stated) | -7.57% | 1.84% | -7.11% | -5.43% | -7.87%
55 | CC(NC(=O)c1ccc2c(=O)nc3c(-c4cccc(F)c4)n[nH]n3c2c1)c1ccc(F)cc1 (configuration not stated) | -31.7% | -2.7% | -3.41% | -10.6% | -4.56%
